{
  "source": "patent US12290509B2",
  "about": "“Treatment of hepatitis delta virus infection” (priority 2014, dated 2025)",
  "molecules": {"B1": {"name": "interferon lambda monotherapy: pegylated interferon lambda-1a, subcutaneous, prophetic Phase 2 protocol (protein, UniProt Q8IU54 20-200, looked up)", "Interferon lambda-1": "GPVPTSKPTTTGKGCHIGRFKSLSPQELASFKKARDALEESLKLKNWSCSSPVFPGNWDLRLLQVRERPVALEAELALTLKVLEAAAGPALEDVLDQPLHTLHHILSQLQACIQPQPTAGPRPRGRLHHWLHRLQEAPKKESAGCLEASVTFNLFRLLTRDLKYVADGNLCLRTSTHPEST", "modifications": "PEG", "notes": "pegylated interferon lambda-1a, subcutaneous, prophetic Phase 2 protocol"}},
  "key": {"[1]": {"system": "hepatitis delta virus (HDV)", "conditions": "human, in vivo"}, "hepatitis B virus (HBV)": {"system": "hepatitis B virus (HBV)", "assay": "HBV DNA viral load and HBsAg in patients infected with HBV and HDV", "conditions": "PEG-IFN-λ 120 or 180 μg per week s.c., 48 weeks, prophetic protocol"}},
  "note": "Values joined by “and” are separate entries in the source; they are usually repeats but may differ in a detail not shown here. Identical values can stand only once.",
  "data": [
    {"molecule": "NC(=O)N1CCC(CC(=O)N2CCC([C@H]3c4ncc(Br)cc4CCc4cc(Cl)cc(Br)c43)CC2)CC1", "note": "[lonafarnib]", "values": [
      {"measurement": "HDV RNA level increase after discontinuation of lonafarnib (viral rebound)", "setting": "[1]", "result": "1.7 log HDV RNA copies/mL and 1.4 log HDV RNA copies/mL"},
      {"measurement": "change in viral loads at 56 and 84 days versus levels at 28 days", "setting": "[1]", "result": "plateaued or increased"},
      {"measurement": "mean change in HDV RNA levels from baseline to nadir", "setting": "[1]", "result": "−0.74", "unit": "log HDV RNA copies/mL"},
      {"measurement": "response to therapy (>=0.5 log HDV RNA copies/mL decline baseline to nadir)", "setting": "[1]", "result": "responsive to therapy"},
      {"measurement": "time from flare to ALT normalization and HDV RNA negativity", "setting": "[1]", "result": "12-24 weeks"}
    ]},
    {"molecule": "B1", "values": [
      {"measurement": "HBV viral load at end-of-treatment compared to baseline", "setting": "hepatitis B virus (HBV)", "result": "reduction in HBV viral load"},
      {"measurement": "level of HBsAg at end-of-treatment compared to baseline", "setting": "hepatitis B virus (HBV)", "result": "reduction in the level of HBsAg"},
      {"measurement": "HDV viral load at end-of-treatment compared to baseline", "setting": "[1]; sc", "result": "reduction in HDV viral load"}
    ]}
  ]
}
